Laboratory results taken from the supplement of paper PMC10037445.
The full ranking holds about 2,900 compounds; the median of “IRF Lucia reporter activity, fold change vs agonist alone” is about 0.9, and the highest 2% start at about 2.8. The list shows a part of the results.

Legend:
[1] = tested on: RAW-Dual; assay: IRF Lucia reporter activity, fold change vs agonist alone; cytotoxicity flag (confluency mask): not cytotoxic; higher = enhanced IRF activity
Summary of the method: (§1)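 RAW-Dual macrophages were seeded in DMEM at 50,000 cells/well in 384-well plates, given 50 nL of library stock by pin tool, and given a PRR agonist 1 h later. Plates were held at 37 °C, 5% CO2 for 20 hours, after which supernatant was read for IRF by QuantiLuc luminescence and for NF-κB by QuantiBlue absorbance at 620 nm. Reporter activity is expressed as fold change over wells that received agonist alone. A well was called cytotoxic when IncuCyte confluency fell below 70% of agonist controls in both mask sets.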

[2] = tested on: RAW-Dual; assay: IRF Lucia reporter activity, fold change vs agonist alone; higher = enhanced IRF activity; conditions: library stock concentration (final ~1000-fold dilution): 10 mM, agonist: MPLA (TLR4) […]
Summary of the method: as §1

[3] = tested on: RAW-Dual; assay: IRF Lucia reporter activity, fold change vs agonist alone; cytotoxicity flag (confluency mask): cytotoxic (confluency <70% of control); higher = enhanced IRF activity
Summary of the method: as §1

[4] = agonist: 3'3'-cGAMP (STING) 10 ug/mL
[5] = cytotoxicity flag (confluency mask): not cytotoxic

`O=C(C=Cn1cnc(-c2cc(C(F)(F)F)cc(C(F)(F)F)c2)n1)NNc1cnccn1` (library stock concentration (final ~1000-fold dilution): 10 mM) was tested, and the “IRF Lucia reporter activity” value [1, 4] was 0.0414 and the “IRF Lucia reporter activity” value ([1]; agonist: LPS (TLR4) 0.1 ug/mL) was 0.162.

`O=C(C=Cn1cnc(-c2cc(C(F)(F)F)cc(C(F)(F)F)c2)n1)NNc1cnccn1` was tested, and the “IRF Lucia reporter activity” value [2, 5] was 0.139.

For `COc1ccc(NC(=O)c2ccc(C(=N)N(C)C)cc2)c(C(=O)Nc2ccc(Cl)cn2)c1.O=C(O)/C=C\C(=O)O` (library stock concentration (final ~1000-fold dilution): 10 mM), the “IRF Lucia reporter activity” value [1, 4] was 0.858 and the “IRF Lucia reporter activity” value ([1]; agonist: LPS (TLR4) 0.1 ug/mL) was 0.917.

For `COc1ccc(NC(=O)c2ccc(C(=N)N(C)C)cc2)c(C(=O)Nc2ccc(Cl)cn2)c1.O=C(O)/C=C\C(=O)O`, the “IRF Lucia reporter activity” value [2, 5] was 1.02.

`CCn1c(=O)c(-c2cc(NC(=O)Nc3ccccc3)c(F)cc2Br)cc2cnc(NC)cc21` (library stock concentration (final ~1000-fold dilution): 10 mM) was tested, and the “IRF Lucia reporter activity” value [1, 4] was 0.671 and the “IRF Lucia reporter activity” value ([1]; agonist: LPS (TLR4) 0.1 ug/mL) was 0.268.

`CN(C)CCCCC(=O)Nc1ccc(NC(=S)NC(=O)c2ccc(C(C)(C)C)cc2)cc1.Cl` (library stock concentration (final ~1000-fold dilution): 10 mM) was tested, and the “IRF Lucia reporter activity” value [3, 4] was 0.136 and the “IRF Lucia reporter activity” value ([3]; agonist: LPS (TLR4) 0.1 ug/mL) was 1.07.

`CN(C)CCCCC(=O)Nc1ccc(NC(=S)NC(=O)c2ccc(C(C)(C)C)cc2)cc1.Cl` was tested, and the “IRF Lucia reporter activity” value ([2]; cytotoxicity flag (confluency mask): cytotoxic (confluency <70% of control)) was 0.389.

For `C=CC1(C)CC(OC(=O)CSC(C)(C)CNC(=O)C(N)C(C)C)C2(C)C(C)CCC3(CCC(=O)C32)C(C)C1O.Cl` (stereo unspecified), the “IRF Lucia reporter activity” value [2, 5] was 1.3.

In the case of `C=CC1(C)CC(OC(=O)CSC(C)(C)CNC(=O)C(N)C(C)C)C2(C)C(C)CCC3(CCC(=O)C32)C(C)C1O.Cl` (stereo unspecified) (library stock concentration (final ~1000-fold dilution): 10 mM), the “IRF Lucia reporter activity” value [1, 4] is reported as 0.568 and the “IRF Lucia reporter activity” value ([1]; agonist: LPS (TLR4) 0.1 ug/mL) is reported as 1.47.

With `COc1ccc(CN(CCN(C)C)c2ccccn2)cc1.O=C(O)/C=C\C(=O)O` (library stock concentration (final ~1000-fold dilution): 10 mM) the “IRF Lucia reporter activity” value [1, 4] was 1.5 and the “IRF Lucia reporter activity” value ([1]; agonist: LPS (TLR4) 0.1 ug/mL) was 0.716.

In the case of `COc1ccc(CN(CCN(C)C)c2ccccn2)cc1.O=C(O)/C=C\C(=O)O`, the “IRF Lucia reporter activity” value [2, 5] is reported as 0.966.

With `Cc1nc(Nc2ncc(C(=O)Nc3c(C)cccc3Cl)s2)cc(N2CCN(CCO)CC2)n1.Cl` (library stock concentration (final ~1000-fold dilution): 10 mM) the “IRF Lucia reporter activity” value [1, 4] was 0.0778 and the “IRF Lucia reporter activity” value ([1]; agonist: LPS (TLR4) 0.1 ug/mL) was 1.07.

With `Cc1nc(Nc2ncc(C(=O)Nc3c(C)cccc3Cl)s2)cc(N2CCN(CCO)CC2)n1.Cl` the “IRF Lucia reporter activity” value [2, 5] was 0.77.

In the case of `COCCc1ccc(OCC(O)CNC(C)C)cc1.COCCc1ccc(OCC(O)CNC(C)C)cc1.O=C(O)CCC(=O)O` (stereo unspecified) (library stock concentration (final ~1000-fold dilution): 10 mM), the “IRF Lucia reporter activity” value [1, 4] is reported as 0.95 and the “IRF Lucia reporter activity” value ([1]; agonist: LPS (TLR4) 0.1 ug/mL) is reported as 0.608.

For `COCCc1ccc(OCC(O)CNC(C)C)cc1.COCCc1ccc(OCC(O)CNC(C)C)cc1.O=C(O)CCC(=O)O` (stereo unspecified), the “IRF Lucia reporter activity” value [2, 5] was 1.03.

For `CC1=C(C(=O)OC(C)C)C(c2cccc([N+](=O)[O-])c2)C(C(=O)OC2CN(C(c3ccccc3)c3ccccc3)C2)=C(N)N1` (stereo unspecified) (library stock concentration (final ~1000-fold dilution): 10 mM), the “IRF Lucia reporter activity” value [1, 4] was 0.954 and the “IRF Lucia reporter activity” value ([1]; agonist: LPS (TLR4) 0.1 ug/mL) was 0.756.

`CC1=C(C(=O)OC(C)C)C(c2cccc([N+](=O)[O-])c2)C(C(=O)OC2CN(C(c3ccccc3)c3ccccc3)C2)=C(N)N1` (stereo unspecified) was tested, and the “IRF Lucia reporter activity” value [2, 5] was 1.16.

In the case of `COc1cc(C(=O)NS(=O)(=O)c2ccccc2C)ccc1Cc1cn(C)c2ccc(NC(=O)OC3CCCC3)cc12` (library stock concentration (final ~1000-fold dilution): 10 mM), the “IRF Lucia reporter activity” value [1, 4] is reported as 0.983 and the “IRF Lucia reporter activity” value ([1]; agonist: LPS (TLR4) 0.1 ug/mL) is reported as 0.881.

In the case of `COc1cc(C(=O)NS(=O)(=O)c2ccccc2C)ccc1Cc1cn(C)c2ccc(NC(=O)OC3CCCC3)cc12`, the “IRF Lucia reporter activity” value [2, 5] is reported as 1.04.

In the case of `COc1ccc(-c2cnc3c(-c4cccc5ncccc45)cnn3c2)cc1`, the “IRF Lucia reporter activity” value [2, 5] is reported as 0.622.

In the case of `COc1ccc(-c2cnc3c(-c4cccc5ncccc45)cnn3c2)cc1` (library stock concentration (final ~1000-fold dilution): 10 mM), the “IRF Lucia reporter activity” value [1, 4] is reported as 0.587 and the “IRF Lucia reporter activity” value ([1]; agonist: LPS (TLR4) 0.1 ug/mL) is reported as 0.513.

`CC(/C=C/C=C(\C)C(=O)OC1OC(COC2OC(CO)C(O)C(O)C2O)C(O)C(O)C1O)=C\C=C\C=C(C)\C=C\C=C(/C)C(=O)OC1OC(COC2OC(CO)C(O)C(O)C2O)C(O)C(O)C1O` (stereo unspecified) (library stock concentration (final ~1000-fold dilution): 10 mM) was tested, and the “IRF Lucia reporter activity” value [1, 4] was 0.95 and the “IRF Lucia reporter activity” value ([1]; agonist: LPS (TLR4) 0.1 ug/mL) was 1.01.

In the case of `Cc1ccc(C2OC(CO)C(O)C(O)C2O)cc1Cc1ccc(-c2ccc(F)cc2)s1` (stereo unspecified), the “IRF Lucia reporter activity” value [2, 5] is reported as 0.952.

For `Cc1ccc(C2OC(CO)C(O)C(O)C2O)cc1Cc1ccc(-c2ccc(F)cc2)s1` (stereo unspecified) (library stock concentration (final ~1000-fold dilution): 10 mM), the “IRF Lucia reporter activity” value [1, 4] was 1.14 and the “IRF Lucia reporter activity” value ([1]; agonist: LPS (TLR4) 0.1 ug/mL) was 0.886.

`COc1ccc(C2OCC3C(c4ccc5c(c4)OCO5)OCC23)cc1OC` (stereo unspecified) (library stock concentration (final ~1000-fold dilution): 10 mM) was tested, and the “IRF Lucia reporter activity” value [1, 4] was 0.966 and the “IRF Lucia reporter activity” value ([1]; agonist: LPS (TLR4) 0.1 ug/mL) was 1.02.

With `O=C(COc1ccc(Cl)cc1)NC1CCC(NC(=O)COc2ccc(Cl)cc2)CC1` (stereo unspecified) (library stock concentration (final ~1000-fold dilution): 2 mM) the “IRF Lucia reporter activity” value [1, 4] was 1.18 and the “IRF Lucia reporter activity” value ([1]; agonist: LPS (TLR4) 0.1 ug/mL) was 1.02.
